# From PMC4336329 (PLoS ONE, 2015)
# The whole screen tested about 310,000 compounds, of which about 14,000 (4.5%) showed an effect of 50% or more. Effects have a minus sign here. This is one part of the list.
# Target: human ether-à-go-go-related gene (hERG) potassium channel (human, UniProt Q12809)
# Experiment: primary screen, population patch clamp on CHO cells stably expressing hERG
# 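Also: peak tail current of the secondary pulse compared with the same well before compound.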
# Chain of human ether-à-go-go-related gene (hERG) potassium channel (Q12809 whole entry, looked up): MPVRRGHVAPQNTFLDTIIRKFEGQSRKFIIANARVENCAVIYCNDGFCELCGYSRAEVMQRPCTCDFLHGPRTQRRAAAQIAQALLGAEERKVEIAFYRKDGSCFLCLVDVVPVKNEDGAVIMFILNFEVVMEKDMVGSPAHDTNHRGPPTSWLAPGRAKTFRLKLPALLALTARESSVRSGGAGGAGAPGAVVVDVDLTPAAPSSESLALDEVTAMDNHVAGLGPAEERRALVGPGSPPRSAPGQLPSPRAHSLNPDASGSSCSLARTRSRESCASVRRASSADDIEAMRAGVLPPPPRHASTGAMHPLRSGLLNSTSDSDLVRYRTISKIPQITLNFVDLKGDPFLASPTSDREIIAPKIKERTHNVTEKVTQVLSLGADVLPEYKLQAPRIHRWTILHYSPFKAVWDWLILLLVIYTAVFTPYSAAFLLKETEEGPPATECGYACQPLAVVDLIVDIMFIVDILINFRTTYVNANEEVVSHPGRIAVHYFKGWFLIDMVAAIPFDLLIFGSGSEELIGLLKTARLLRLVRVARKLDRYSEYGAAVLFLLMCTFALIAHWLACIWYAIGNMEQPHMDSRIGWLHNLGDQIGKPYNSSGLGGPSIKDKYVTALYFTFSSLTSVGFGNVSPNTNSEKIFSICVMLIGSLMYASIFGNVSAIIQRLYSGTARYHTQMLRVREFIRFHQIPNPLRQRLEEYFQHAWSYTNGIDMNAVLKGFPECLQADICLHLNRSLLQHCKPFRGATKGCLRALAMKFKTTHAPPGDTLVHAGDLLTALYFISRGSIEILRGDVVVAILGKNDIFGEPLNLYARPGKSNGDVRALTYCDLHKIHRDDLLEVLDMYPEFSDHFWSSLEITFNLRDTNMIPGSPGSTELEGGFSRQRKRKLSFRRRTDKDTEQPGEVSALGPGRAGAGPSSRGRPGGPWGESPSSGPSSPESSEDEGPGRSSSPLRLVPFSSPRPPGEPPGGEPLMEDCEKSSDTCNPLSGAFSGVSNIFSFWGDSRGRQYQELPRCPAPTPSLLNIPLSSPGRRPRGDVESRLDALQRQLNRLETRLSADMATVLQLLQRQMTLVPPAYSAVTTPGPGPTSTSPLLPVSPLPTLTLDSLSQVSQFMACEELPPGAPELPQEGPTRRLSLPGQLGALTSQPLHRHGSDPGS
row,SMILES,"hERG current change (%, negative = inhibition) at 10uM [%]"
1,CCOc1ccc(NS(=O)(=O)c2ccc(NC(=O)[C@@H]3CCCC[C@@H]3C(=O)O)cc2)cc1,-4.25
2,O=C(CCN1C(=O)C2C3C=CC(C3)C2C1=O)Nc1c(F)cc(F)cc1Br (stereo not drawn),15.1
3,CN(C)N1C(N)=C(C#N)C(c2ccc(Br)cc2)C2=C1CCCC2=O (stereo not drawn),-47.1
4,CN(C)c1nc(-c2ccccc2)c2cc(Cl)ccc2n1,15.5
5,Cc1cccc(NC(=S)N(CCN(C)C)C(C)c2cccnc2)c1 (stereo not drawn),-29.4
6,COc1cccc(C(=O)Nc2ccc(C(=O)O)cc2)c1,5.69
7,Cc1cc(O)ccc1N1C(=O)c2cccc3cc([N+](=O)[O-])cc(c23)C1=O,21
8,CCOc1cc(/C=N/NC(=O)C2CCCC2)ccc1O,3.33
9,CCOC(=O)N1CCN(C(=O)c2csc3c2CCCCC3)CC1,8.08
10,O=C(NCc1ccccc1Cl)c1cc(C(=O)C2CC2)c[nH]1,24.7
11,O=C(Nc1ccc(C(=O)NC2CCCCC2)cc1)c1cncc(Br)c1,7.95
12,C=CCn1c(SCn2nnc3ccccc3c2=O)nc2scc(-c3cccs3)c2c1=O,-5.21
13,CCOC(=O)C1=C(C)Nc2ncnn2C1c1cc(OC)ccc1OC (stereo not drawn),7.14
14,COc1ccc(C(=O)C2CCCN(C(=O)/C=C/c3ccccn3)C2)c(C)c1 (stereo not drawn),-4.66
15,COc1ccc(Br)cc1CN(C)CC(=O)NCCc1ccc(S(N)(=O)=O)cc1,-31.8
16,CCc1sc(N(C(=O)Cc2ccccc2)c2ccccc2)nc1-c1ccccc1,9.11
17,O=C(OCCCc1cc2ccccc2c(=O)o1)c1ccc(C(F)(F)F)cc1,-6.59
18,CC1CCc2c(sc3nc(SCC(=O)NCc4ccco4)nc(N)c23)C1 (stereo not drawn),-3.53
19,CCc1c(C)nc(SC(C(=O)O)c2ccccc2)c(C#N)c1C (stereo not drawn),-14.2
20,CC(=O)N1c2ccc(S(=O)(=O)NCCC(=O)NCCc3cccc(C)c3)cc2CC1C (stereo not drawn),-4.31
21,CCN(C(=O)COc1cc(=O)n(CC)c2ccccc12)c1cccc(Cl)c1,-40.9
22,Cc1nc(SCC(=O)c2cccc([N+](=O)[O-])c2)n[nH]1,5.2

row,SMILES,"hERG current change (%, negative = inhibition) at 10uM [%]"
1,O=C(O)c1cccc(Nc2c3ccccc3nc3ccccc23)c1,19.7
2,C=C(C)Cn1c(=O)c(NC(=O)c2ccccc2)c2n(c1=S)CCC2,0.462
3,CCCC(=O)c1ccc(N2CCCCCC2)c(F)c1,-17.9
4,CC1CC(C)CN(C(=O)c2cccc3c2-c2ccccc2C3=O)C1 (stereo not drawn),-18.8
5,COc1cc(C(CCN2CCOCC2)c2c(OC)cc(OC)c3c2OC(=O)CC3c2ccc(N(C)C)cc2)cc(OC)c1OC (stereo not drawn),-1.75
6,CCC(=O)N1CCN(c2ccc(NC(=O)COc3cccc(C)c3C)cc2)CC1,-12
7,Cc1ccc(Cl)cc1NC(=O)CC1NCCNC1=O (stereo not drawn),13.6
8,COc1ccc(-c2cn3cccnc3n2)cc1Br,-14
9,CCN(C(=O)COC(=O)COc1ccc2c(C)cc(=O)oc2c1)C1CCS(=O)(=O)C1 (stereo not drawn),0.368
10,Cc1cc(C)c2c(c1)-c1c(ssc1=S)C(C)(C)N2C(=O)CN1C(=O)c2ccccc2C1=O,-22
11,O=C(Nc1cccc(C(=O)N2CCOCC2)c1)c1ccccc1Cl,-17
12,N#Cc1c(NCCCO)nc(NCc2ccccc2)c2c1CCN(Cc1ccccc1)C2,-43.4
13,CN(C(=O)COC(=O)c1cc(S(=O)(=O)N2CCCCC2)ccc1Cl)c1ccccc1,-7.91
14,O=C(NCCCn1ccnc1)c1cc2c(s1)CCCC2,-1.81
15,CCOC(=O)c1ccc(NC(=S)N2CCCC(C(=O)N3CCCC3)C2)cc1 (stereo not drawn),-9.48
16,CC(C)c1ccc(OCC(=O)Nc2ccc3oc(=O)ccc3c2)cc1,14.3
17,O=C(CSc1ccc([N+](=O)[O-])cn1)Nc1ccc2c(c1)OCCO2,12.8
18,CCOc1ccc(NCc2nnc(SCC(=O)Nc3nc(-c4ccccc4)cs3)n2-c2ccccc2)cc1,0.783
19,COc1ccc(C2NC(=O)NC3=C2C(=O)CCC3)cc1 (stereo not drawn),13.7
20,CC1CC(C)CN(S(=O)(=O)c2cc(C(=O)O)c(Cl)s2)C1 (stereo not drawn),6.3
21,CCn1cc(C(=O)N[C@H](C(=O)NCCCOC)C(C)C)c(=O)c2cc3c(cc21)OCO3,13.1
22,COc1ccc2[nH]c(=O)c(CN(Cc3cccnc3)S(=O)(=O)c3ccccc3F)cc2c1,9.74

row,SMILES,"hERG current change (%, negative = inhibition) at 10uM [%]"
1,Cc1cc(C)c2nc(NC(=O)C3CSC4(C)CCC(=O)N34)sc2c1 (stereo not drawn),24.2
2,CC(C)(C)c1ccc(-c2n[nH]c(=S)n2CCCN2CCOCC2)cc1,24.9
3,CCOc1ccc(OCC(=O)Nc2ccc(S(=O)(=O)Nc3cc(C)nc(C)n3)cc2)cc1,16.4
4,Cc1nn(CC(=O)N2CCC(C)CC2)c(=O)c2nn(-c3ccccc3)c(C)c12,10.2
5,O=C(N/N=C/c1cc(Br)c(O)c(Br)c1O)c1cccnc1,-2.32
6,CSC1=N/C(=C\c2ccc(Cl)cc2)C(=O)N1N(C)C,2.92
7,O=C(CSc1ccccc1C(=O)O)NC1CCCCCCC1,17.6
8,c1ccc(-n2c(-c3ccncc3)nnc2N2CCOCC2)cc1,16.9
9,NC(=O)C1CCN(Cc2nc3ccccc3c(=O)[nH]2)CC1,6.56
10,O=C(c1ccc(Br)cc1)N1CCCc2ccccc21,-6.19
11,COc1ccc(/C=N/NC(=O)CCCC(=O)NC2CCCCC2)cc1,5.06
12,CCC(=O)Nc1c2c(nn1-c1ccc([N+](=O)[O-])cc1)CS(=O)(=O)C2,10
13,C=CCc1cc(Cl)ccc1OC(=O)Nc1cccc(Cl)c1,2.47
14,COc1cc(/C=C2\C(=O)ON=C2c2ccccc2)cc(Cl)c1O,-49.9
15,Cc1nc(-c2cccc(NS(=O)(=O)c3ccccc3)c2)cs1,-13.6
16,Cc1[nH]nc2c1C(c1ccc(-c3ccccc3C#N)o1)C(C#N)=C(N)O2 (stereo not drawn),13.9
17,Cc1ccc2cc(CCNC(=O)c3ccco3)c(=O)[nH]c2c1,-13.6
18,CN1C(=O)CC(n2c(CO)nc3ccccc32)C1=O (stereo not drawn),3.49
19,COc1cc(/C=C2\C(=N)N3N=CSC3=NC2=O)cc(Br)c1OC(=O)c1ccco1,8.78
20,CCOC(=O)c1ccc(CC(=O)c2ccc(O)cc2O)o1,-4.15
21,CC1=C(C)CC(C(=O)NCCc2ccc(F)cc2)C(C(=O)O)C1 (stereo not drawn),-2.21
22,COc1ccc(N(CC(=O)NC2CCCCC2)C(=O)CNC(=O)c2cccs2)cc1OC,8.73

row,SMILES,"hERG current change (%, negative = inhibition) at 10uM [%]"
1,O=S(=O)(NCc1ccc(F)cc1)c1ccc(-c2cnc(C3CC3)o2)cc1,13.5
2,CC(Oc1ccc(Cl)cc1)C(=O)N1CCN(C(=O)c2ccco2)CC1 (stereo not drawn),-29.5
3,COc1ccc(/C=C(\NC(=O)c2cccs2)C(=O)Nc2cccc3ccccc23)cc1OC,-7.06
4,CCOc1ccccc1Oc1coc2cc(OC)ccc2c1=O,14.5
5,CCCN1CCN(S(=O)(=O)c2cn(C)nc2C)CC1,22
6,COc1ccc(C(O)(C(=O)NNc2ccc(C)cc2)c2cccs2)cc1 (stereo not drawn),1.33
7,CCn1c(CNC(=O)c2cccc(C)c2)nnc1SCC(=O)Nc1nnc(C)s1,15.4
8,CN(CC(=O)Nc1cccc(F)c1)C(=O)Cn1c(=O)cnc2ccccc21,-10.7
9,COC(=O)c1c(C)n(-c2ccccc2)c2ccc(O)cc12,-7.31
10,N/C(Cc1ccc([N+](=O)[O-])cc1)=N\OC(=O)COc1ccc2ccccc2c1,-14.4
11,Cc1onc(-c2c(F)cccc2Cl)c1C(=O)OCC(=O)NCc1ccccc1,-27.8
12,COc1ccccc1C(=O)N/C(=C\c1cn(S(=O)(=O)N(C)C)c2ccccc12)C(=O)N1CCOCC1,14.9
13,CCCCC1CCC(C(=O)NCC(c2ccco2)N2CCOCC2)CC1 (stereo not drawn),2.06
14,O=c1cc(N2CCOCC2)[nH]c(=O)n1Cc1ccc(F)cc1,20
15,CCC(CC)COC(=O)C1=C(C)NC(=O)NC1c1cccc([N+](=O)[O-])c1 (stereo not drawn),15.1
16,OC(CNc1ncnc2sccc12)c1ccccc1 (stereo not drawn),2.14
17,CN(c1ccc(Cl)cc1)S(=O)(=O)c1nnc(NC(=O)c2ccco2)s1,16.9
18,COc1ccc(C2/C(=C(/O)c3ccc4c(c3)CC(C)O4)C(=O)C(=O)N2CCN2CCOCC2)cc1 (stereo not drawn),-4.07
19,COC(=O)c1ccsc1NC(=O)c1cccc(OC)c1,1.44
20,C=CCc1cc(C=C2C(=O)NC(=O)NC2=O)cc(OC)c1OCc1ccc(C(=O)O)cc1,2.75
21,CCCC(=O)Oc1ccc(C2NC(=O)c3ccccc3O2)cc1OC (stereo not drawn),11.6
